Experimental data reported in patent publication US20200087367A1 (ACCELERON PHARMA, published 2020).

T1: BMP5 (human, UniProt P22003 317-454, limits assumed)
T1 sequence (looked up): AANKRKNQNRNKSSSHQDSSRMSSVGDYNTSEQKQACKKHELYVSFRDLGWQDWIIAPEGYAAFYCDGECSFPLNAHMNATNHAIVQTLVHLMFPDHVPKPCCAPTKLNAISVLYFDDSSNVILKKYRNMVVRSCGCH

T2: BMP9 (human, UniProt Q9UK05 320-429)
T2 construct: also called hBMP-9; hBMP9
T2 sequence (looked up): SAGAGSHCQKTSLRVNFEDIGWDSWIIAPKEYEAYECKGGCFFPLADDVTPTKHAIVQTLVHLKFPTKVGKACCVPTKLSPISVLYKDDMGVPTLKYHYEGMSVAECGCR

T3: BMP10 (human, UniProt O95393 317-424)
T3 construct: also called hBMP-10; hBMP10
T3 sequence: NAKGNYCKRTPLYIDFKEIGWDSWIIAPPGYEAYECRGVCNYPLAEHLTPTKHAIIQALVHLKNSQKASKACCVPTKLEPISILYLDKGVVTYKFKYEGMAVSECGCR

T4: BMP6 (human, UniProt P22004 382-513, limits assumed)
T4 sequence (looked up): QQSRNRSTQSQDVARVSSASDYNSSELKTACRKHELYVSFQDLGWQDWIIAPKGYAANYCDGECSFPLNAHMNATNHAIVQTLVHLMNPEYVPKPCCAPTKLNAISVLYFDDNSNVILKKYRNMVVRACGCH

T5: TGF-β3 (human, UniProt P10600 301-412)
T5 construct: also called hTGF-β3
T5 sequence (looked up): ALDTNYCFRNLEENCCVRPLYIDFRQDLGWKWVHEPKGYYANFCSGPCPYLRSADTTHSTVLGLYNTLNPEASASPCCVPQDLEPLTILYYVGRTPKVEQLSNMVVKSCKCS

T6: activin A (human, UniProt P08476 311-426)
T6 construct: also called hActivin A
T6 sequence (looked up): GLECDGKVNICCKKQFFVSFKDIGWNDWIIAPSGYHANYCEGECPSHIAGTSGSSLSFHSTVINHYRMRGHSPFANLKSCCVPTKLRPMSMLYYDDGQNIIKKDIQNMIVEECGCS

T7: BMP7 (human, UniProt P18075 293-431)
T7 construct: also called hBMP-7
T7 sequence (looked up): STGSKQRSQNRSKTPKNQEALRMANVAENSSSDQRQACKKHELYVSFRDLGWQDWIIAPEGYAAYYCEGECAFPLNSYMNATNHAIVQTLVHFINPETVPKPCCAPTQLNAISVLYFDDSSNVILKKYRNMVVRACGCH

T8: TGF-β2 (human, UniProt P61812 303-414)
T8 construct: also called hTGF-β2
T8 sequence (looked up): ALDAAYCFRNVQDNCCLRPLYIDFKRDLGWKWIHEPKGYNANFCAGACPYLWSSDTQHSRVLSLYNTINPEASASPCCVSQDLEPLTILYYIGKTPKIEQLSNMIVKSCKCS

T9: BMP2 (human, UniProt P12643 283-396)
T9 construct: also called hBMP-2
T9 sequence (looked up): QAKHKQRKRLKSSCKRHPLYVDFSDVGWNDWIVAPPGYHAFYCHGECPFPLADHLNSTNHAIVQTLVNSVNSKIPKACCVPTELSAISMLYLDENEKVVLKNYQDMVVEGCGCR

T10: hBMP-2/7 (human, UniProt P12643 283-396; P18075 293-431)
T10 sequence (looked up) 1: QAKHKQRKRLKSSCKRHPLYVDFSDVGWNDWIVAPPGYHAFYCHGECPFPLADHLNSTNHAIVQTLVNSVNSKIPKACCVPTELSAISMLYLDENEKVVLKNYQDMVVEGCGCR
T10 sequence (looked up) 2: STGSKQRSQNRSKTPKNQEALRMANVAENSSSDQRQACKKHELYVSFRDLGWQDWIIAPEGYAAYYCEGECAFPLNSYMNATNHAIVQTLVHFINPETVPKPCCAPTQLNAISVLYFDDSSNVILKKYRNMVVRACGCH


Tests used:
[1] = molecular target: T1, BMP5; test: SPR (Biacore), ligand amine-coupled to CM5 chip, Fc fusion injected
[2] = molecular target: T2, BMP9; test: as above
[3] = molecular target: T3, BMP10; test: as above
[4] = molecular target: T4, BMP6; test: as above
[5] = molecular target: T3, BMP10; test: SPR kinetics; CHO-cell-derived protein
[6] = molecular target: T2, BMP9; test: SPR kinetics; CHO-cell-derived protein
[7] = molecular target: T5, TGF-β3; test: SPR (Biacore), captured ENG protein, soluble ligand; '-' = binding undetectable
From the text: (§1) Considered a co-receptor, ENG is widely thought to function by facilitating the binding of TGF-β1 and -3 to multi-protein complexes of type I and type II receptors. To investigate the possibility of direct ligand binding by isolated ENG, surface plasmon resonance (SPR) methodology (Biacore™ instrument) was used to screen for binding of captured proteins comprising the full-length extracellular domain of ENG to a variety of soluble human TGF-β family ligands.

[8] = molecular target: T6, activin A; test: as above
From the text: as §1

[9] = molecular target: T7, BMP7; test: as above
From the text: as §1

[10] = molecular target: T8, TGF-β2; test: as above
From the text: as §1

[11] = molecular target: T11, TGF-β1 (human, UniProt P01137 fragment); test: as above
T11 construct: also called hTGF-β1
T11 sequence (P01137 279-390 limits assumed): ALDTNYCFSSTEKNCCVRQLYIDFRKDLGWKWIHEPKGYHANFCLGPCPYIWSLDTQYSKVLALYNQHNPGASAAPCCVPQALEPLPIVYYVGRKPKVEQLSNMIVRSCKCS
From the text: as §1

[12] = molecular target: T9, BMP2; test: as above
From the text: as §1

[13] = molecular target: T10, hBMP-2/7; test: as above
From the text: as §1

Binder	binding result [1]	Kd [2]	Kd [3]	binding result [4]	Kd [5]	koff [5]	Kd [6]	koff [6]	binding result [7]	binding result [8]	binding result [9]	binding result [10]	binding result [11]	binding result [12]	binding result [13]
ALK1-hFc (Fc fusion, As purified from CHO cells) not shown	no binding	0.0314 nM	0.0149 nM	no binding											
hENG(26-586)-hFc (Fc fusion, also called full-length construct; Full Length) GAETVHCDLQPVGPERDEVTYTTSQVSKGCVAQAPNAILEVHVLFLEFPTGPSQLELTLQASKQNGTWPREVLLVLSVNSSVFLHLQALGIPLHLAYNSSLVTFQEPPGVNTTELPSFPKTQILEWAAERGPITSAAELNDPQSILLRLGQAQGSLSFCMLEASQDMGRTLEWRPRTPALVRGCHLEGVAGHKEAHILRVLPGHSAGPRTVTVKVELSCAPGDLDAVLILQGPPYVSWLIDANHNMQIWTTGEYSFKIFPEKNIRGFKLPDTPQGLLGEARMLNASIVASFVELPLASIVSLHASSCGGRLQTSPAPIQTTPPKDTCSPELLMSLIQTKCADDAMTLVLKKELVAHLKCTITGLTFWDPSCEAEDRGDKFVLRSAYSSCGMQVSASMISNEAVVNILSSSSPQRKKVHCLNMDSLSFQLGLYLSPHFLQASNTIEPGQQSFVQVRVSPSVSEFLLQLDSCHLDLGPEGGTVELIQGRAAKGNCVSLLSPSPEGDPRFSFLLHFYTVPIPKTGTLSCTVALRPKTGSQDQEVHRTVFMRLNIISPDLSGCTSKGTGGG[human IgG1 Fc not shown]					0.49 nM	0.011 s⁻¹	0.033 nM	0.0025 s⁻¹	no binding (tested: 100 nM)	no binding (tested: 100 nM)	no binding (tested: 100 nM)	no binding (tested: 100 nM)	no binding (tested: 100 nM)	no binding (tested: 100 nM)	no binding (tested: 100 nM)
